# Experimental data: PubChem BioAssay AID1460 (National Center for Advancing Translational Sciences (NCATS), 2008)
# In all, about 270,000 compounds went through this assay and about 5,800 (2.1%) were called active. The inconclusive results got no clear call from the source; some entries with a clear call stand among them for comparison. Calls come from the whole dose curve; as a rule, active = well fitted inhibition curve with a large enough effect; inconclusive = small, poorly fitted or top-dose-only effect; inactive = flat fitted curve, though single readings scatter. Potencies beside an inconclusive call are fits to weak or partial responses and may not hold up.
# Biological target: Microtubule-associated protein tau (Homo sapiens) (UniProt P10636)
# Assay: qHTS for Inhibitors of Tau Fibril Formation, Thioflavin T Binding; note: nearly all actives have a fitted effect of over 55% in size
# Settings: recombinant tau K18 P301L (four-repeat tau fragment), heparin-induced fibrillization, ThT fluorescence; series mostly up to 57.4 µM; activity, negative = inhibition: at the top concentration
# Procedure, shortened: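 Aggregation was driven by heparin (20 uM final) acting on recombinant tau […] bearing P301L in 100 mM sodium acetate pH 7; fibrils were detected with Thioflavin T.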
# % is set by controls: 0 for no effect and ±100 for the full control effect; potency is the fitted concentration of half-maximal effect; tags give direction and shape of the fitted curve.
# Sequence of UniProt P10636 (P10636 whole entry, looked up): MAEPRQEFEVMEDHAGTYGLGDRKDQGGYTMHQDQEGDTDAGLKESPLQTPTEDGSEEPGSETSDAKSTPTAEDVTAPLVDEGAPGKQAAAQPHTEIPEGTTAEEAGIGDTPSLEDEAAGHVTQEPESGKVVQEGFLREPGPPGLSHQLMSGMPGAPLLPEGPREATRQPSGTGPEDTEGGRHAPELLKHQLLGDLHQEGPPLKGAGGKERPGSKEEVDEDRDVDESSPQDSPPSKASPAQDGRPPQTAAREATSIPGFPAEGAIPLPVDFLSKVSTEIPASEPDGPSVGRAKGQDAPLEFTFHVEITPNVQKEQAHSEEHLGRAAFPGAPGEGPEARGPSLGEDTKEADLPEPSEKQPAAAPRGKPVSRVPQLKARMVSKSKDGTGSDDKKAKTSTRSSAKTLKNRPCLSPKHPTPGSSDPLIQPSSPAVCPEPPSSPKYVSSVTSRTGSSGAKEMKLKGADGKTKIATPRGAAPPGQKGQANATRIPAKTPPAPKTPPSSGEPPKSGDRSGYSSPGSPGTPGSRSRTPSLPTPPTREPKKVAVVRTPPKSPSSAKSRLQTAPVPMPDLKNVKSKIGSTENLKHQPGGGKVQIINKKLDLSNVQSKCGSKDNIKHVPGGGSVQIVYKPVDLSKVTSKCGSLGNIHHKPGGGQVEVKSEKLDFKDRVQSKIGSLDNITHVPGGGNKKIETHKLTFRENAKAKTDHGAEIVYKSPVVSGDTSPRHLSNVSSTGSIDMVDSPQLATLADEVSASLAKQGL
Compound,Potency,"activity, negative = inhibition"
O=C1C(Cl)=C(N2CCOCC2)C(=O)N1CCc1ccccc1,"inconclusive: 31.6 µM [inhibitor, single point]",–
CN(C)CCCNC(=S)Nc1ccc(Br)cc1,–,inactive: -5.33%
CCOC(=O)CSc1nnc(-c2ccc([N+](=O)[O-])cc2)o1,"inconclusive: 20 µM [inhibitor, partial curve]",–
S=C(NCc1ccco1)N/N=C/c1cccnc1,–,inactive: -2.71%
Cc1ccc(Nc2ccc(-n3ccnc3)nn2)cc1C,"inconclusive: 28.2 µM [inhibitor, partial curve]",–
COc1ccccc1Nc1nc2ccccc2[nH]1,"inconclusive: 20 µM [inhibitor, partial curve]",–
Cc1ccc(NC(=O)Cn2nc(N3CCN(c4ccccc4)CC3)ccc2=O)cc1F,"inconclusive: 25.1 µM [inhibitor, single point]",–
N#C/C(=C\c1ccc(-c2cccc([N+](=O)[O-])c2)o1)C(=O)Nc1nc(-c2cccs2)cs1,active: 2 µM,–
O=C(Nc1ccc(Cl)cc1)c1cc2c(cc1O)[nH]c1ccccc12,"inconclusive: 5.62 µM [inhibitor, full curve]",–
Cc1c(C(=O)N(C)C)sc2c1c(=O)n(-c1ccc(Cl)cc1)c(=O)n2CC(=O)C(C)(C)C,–,inactive: 7.03%
O=C1c2cccc3cc(Br)cc(c23)C(=O)N1Nc1ccc(Br)cc1,"inconclusive: 20 µM [activator, partial curve]",–
CC(C)(C)c1ccc(OCc2ccc(C(=O)N/N=C/c3ccc([N+](=O)[O-])cc3)o2)cc1,"inconclusive: 2.82 µM [inhibitor, full curve]",–
N/C(Cc1ccc([N+](=O)[O-])cc1)=N\OC(=O)COc1cccc2ccccc12,"inconclusive: 3.98 µM [inhibitor, full curve]",–
CCCOC(=O)c1ccc(Oc2cn[nH]c2-c2ccc(OC)cc2O)cc1,"inconclusive: 39.8 µM [inhibitor, single point]",–
Cc1ccc(C(=O)O/N=C2\CCCc3ccccc32)cc1,"inconclusive: 1.41 µM [inhibitor, full curve]",–
Cc1nn(-c2ccccc2)c2c1C(c1ccncc1)C(C#N)=C(N)O2 (configuration not stated),"inconclusive: 28.2 µM [inhibitor, partial curve]",–
COc1ccc(-n2nc([N+](=O)[O-])c(=NCCc3ccc(OC)c(OC)c3)n2O)cc1,"inconclusive: 39.8 µM [inhibitor, single point]",–
CCN(CC(=O)NC1CCCCCC1)S(=O)(=O)c1ccccc1,–,inactive: -3.17%
O=[N+]([O-])c1ccc(NC(=S)N/C(=N/CS(=O)(=O)c2ccccc2)c2ccccc2)cc1,"inconclusive: 12.6 µM [inhibitor, partial curve]",–
CCOc1ccc(NC(=O)Nc2ccc(N(C)C(C)=O)cc2)cc1,"inconclusive: 28.2 µM [inhibitor, partial curve, poor fit]",–
COC(=O)C1CCN(CCCOc2ccc(CN3CCN(c4ccc([N+](=O)[O-])cc4)CC3)cc2)CC1,"inconclusive: 11.2 µM [inhibitor, partial curve]",–
COc1ccc2c(CC(=O)Nc3ccc(N4CCOCC4)cc3)coc2c1,"inconclusive: 15.8 µM [inhibitor, partial curve, poor fit]",–
COC(=O)N/N=C/c1cc(Br)ccc1O,"inconclusive: 1.26 µM [inhibitor, partial curve]",–

Compound,Potency,"activity, negative = inhibition"
O=c1cc(CN2CCN(c3ccccc3)CC2)c2cc(O)c(-c3ccccc3)cc2o1,"inconclusive: 7.94 µM [inhibitor, partial curve]",–
CC(=O)c1sc2c(c1OC(=O)c1ccc(Cl)cc1Cl)c(=O)n(-c1ccccc1)c(=S)n2-c1ccccc1,"inconclusive: 7.94 µM [inhibitor, full curve]",–
COc1ccc(/C=C/C(=O)N2CCN(c3ccccn3)CC2)c2ccccc12,"inconclusive: 15.8 µM [inhibitor, partial curve]",–
CC(C)C(=O)OCC(=O)Nc1ccc(N=Nc2ccccc2)cc1,active: 7.94 µM,–
Cc1ccc(N/C=C/C(=O)c2cccs2)cc1C,"inconclusive: 5.01 µM [inhibitor, partial curve]",–
CN1CCN(C(=S)c2cn(CCOc3ccccc3F)c3ccccc23)CC1,–,inactive: -6.16%
Cc1cccc(OCc2nc(CC(=O)Nc3ccc(C)c(C)c3)cs2)c1,–,inactive: -8.25%
CCOCCCNC(=S)N1CCN(C(=O)C(=O)Nc2ccc(C(=O)OC)cc2)CC1,"inconclusive: 10 µM [inhibitor, partial curve]",–
Cc1ccc(N2NC(=O)/C(=C/c3ccc(-c4ccc(Cl)c(C(=O)O)c4)o3)C2=O)cc1C,"inconclusive: 2.82 µM [inhibitor, full curve]",–
COc1ccc(NC(=O)c2csc3c2CCCCC3)c(OC)c1,"inconclusive: 17.8 µM [inhibitor, partial curve]",–
C=CCC(O)(/C=C/c1ccccc1)c1ccccc1 (configuration not stated),–,inactive: -7.12%
NC(=S)N/N=C1\CC(n2nnn(-c3cccc(Cl)c3)c2=S)C2COC1O2 (configuration not stated),–,inactive: -8.13%
CCOc1ccc(C2=CC(c3cccc(Br)c3)n3c(nc4ccccc43)N2)cc1Cl (configuration not stated),"inconclusive: 17.8 µM [inhibitor, partial curve]",–
Cc1cccc(C(=O)NC(=S)N2CCN(C(=S)NC(=O)c3cccc(C)c3)CC2)c1,–,inactive: 4.75%
NNc1nccc(Nc2ccccc2C(=O)O)n1,"inconclusive: 12.6 µM [inhibitor, partial curve]",–
CC(=O)c1ccc(NC(=O)CCc2c(C)nn(-c3ccc(N4CCOCC4)nn3)c2C)cc1,"inconclusive: 22.4 µM [inhibitor, partial curve]",–
Cc1ccc(N2CCN(C(=O)C3CCN(S(=O)(=O)c4ccc5c(c4)oc(=O)n5C)CC3)CC2C)cc1 (configuration not stated),–,inactive: -6.56%
O=S(=O)(Nc1ccc(O)c(Sc2nc3ccccc3s2)c1)c1ccc(Cl)cc1,"inconclusive: 15.8 µM [inhibitor, partial curve]",–
Cc1nc(-c2ccc(S(=O)(=O)NCC3CCN(C(=O)OC(C)(C)C)CC3)s2)cs1,"inconclusive: 31.6 µM [inhibitor, partial curve, poor fit]",–
O=C(Nc1ccc2oc(-c3cc(Br)ccc3Cl)nc2c1)c1cc2ccccc2o1,"inconclusive: 3.16 µM [inhibitor, full curve, poor fit]",–
Fc1ccc(C2CC(c3ccco3)=NN2c2ccccc2)cc1 (configuration not stated),–,inactive: 1.13%
COc1ccc(-c2csc3ncnc(Nc4ccc(O)cc4)c23)cc1,"inconclusive: 3.16 µM [inhibitor, partial curve]",–
CCOC(=O)N1CCC(N(CCN(C)C)C(=S)Nc2ccccc2Cl)CC1,–,inactive: -0.613%

Compound,Potency,"activity, negative = inhibition"
O=C(O)c1nn(-c2ccccc2-c2n[nH]c(=O)[nH]c2=O)c(=O)[nH]c1=O,"inconclusive: 39.8 µM [inhibitor, single point]",–
CC(C)CC(=O)Nc1nnc(S(=O)(=O)N(CC(C)C)c2ccccc2)s1,"inconclusive: 1.41 µM [inhibitor, full curve]",–
CC(C)CN(C(=O)CN1CCCCCC1)c1c(N)n(CC(C)C)c(=O)[nH]c1=O,"inconclusive: 7.94 µM [inhibitor, single point]",–
O=C(OCC#CCSc1nnc(-c2cccc3ccccc23)o1)c1cccs1,"inconclusive: 12.6 µM [inhibitor, partial curve]",–
CCOc1ccc(NC(=O)C2CCN(C(=O)N3CC(C)Oc4ccc(Cl)cc43)CC2)cc1 (configuration not stated),"inconclusive: 15.8 µM [inhibitor, partial curve]",–
COc1ccc(-c2cnn3c(N)c(S(=O)(=O)C(C)(C)C)cnc23)cc1,"inconclusive: 25.1 µM [inhibitor, single point]",–
CC(=O)Nc1ccc(S(=O)(=O)N[C@@H](C)C(=O)Nc2ccc(N3CCOCC3)cc2)cc1,"inconclusive: 28.2 µM [inhibitor, single point]",–
COc1cc(-c2cc3n(C)c(C)c(CCC(=O)O)c(=O)n3n2)cc(OC)c1OC,–,inactive: -10.7%
CCCn1c(CN2CCN(c3ccc(OC)cc3)CC2)nc2c1c(=O)[nH]c(=O)n2C,–,inactive: -1.17%
Cc1cc(Cl)ccc1NC(=O)c1cccc(NC(=O)N2CCSc3ncccc32)c1,–,inactive: 0.202%
O=C(CSC1=Nc2ccccc2C2=NC(CCC(=O)NC3CCCCC3)C(=O)N12)Nc1cccc(C(F)(F)F)c1 (configuration not stated),"inconclusive: 20 µM [activator, single point]",–
O=C(c1ccc([N+](=O)[O-])cc1[N+](=O)[O-])N1CCCC1,–,inactive: 4.75%
COc1cc([N+](=O)[O-])ccc1NC(=O)CCCOc1ccc(C)cc1,"inconclusive: 15.8 µM [inhibitor, partial curve]",–
O=C(N/N=C/C(Cl)=C/c1ccc([N+](=O)[O-])cc1)C(=O)Nc1ccccc1C(=O)O,active: 3.16 µM,–
CC[C@@H](c1ccccc1)n1c(=O)n2n(c1=O)[C@H]1[C@H](O)[C@H]3O[C@@H]3/C(=N/OCc3ccccc3)[C@@H]1CC2,–,inactive: -6.25% [at 11.5 µM]
COc1cc(OC)c(NC(=O)N2CCSc3ccccc32)cc1Cl,–,inactive: -5.97%
COc1ccc(CNC(=O)c2cnc3sc(N4CCOCC4)nn3c2=O)cc1,–,inactive: 5.79%
O=C(Nc1cc(C(F)(F)F)ccc1N1CCCCC1)c1cccc([N+](=O)[O-])c1,"inconclusive: 15.8 µM [inhibitor, partial curve]",–
O=C(CCOc1ccccc1)N(Cc1cccnc1)c1nc2c(F)cc(F)cc2s1,–,inactive: -20.5%
CCOCc1nnc(NC(=O)c2cc(OC)cc(OC)c2)s1,–,inactive: 1.73%
COc1ccccc1OCCSc1nc(-c2ccc(C(C)(C)C)cc2)nc2cc(=O)[nH]n12,"inconclusive: 10 µM [inhibitor, partial curve]",–
